PubChem BioAssay AID686978 (National Center for Advancing Translational Sciences (NCATS), 2013)
Several values for one entry are separate records, joined by “and”; a condition that tells them apart may be missing. Equal entries are not always repeated. In all, about 420,000 compounds went through this assay and about 64,000 (15%) were called active. Inconclusive results, whose numbers are uncertain, are shown with a selection of clear calls. Calls follow the shape of the dose curve; as a rule, active = well fitted inhibition curve with a large enough effect; inconclusive = small, poorly fitted or top-dose-only effect; inactive = flat fitted curve, though single readings scatter. Potencies beside an inconclusive call are fits to weak or partial responses and may not hold up.

experiment: qHTS for Inhibitors of human tyrosyl-DNA phosphodiesterase 1 (TDP1): qHTS in cells in absence of CPT; conditions: DT40 Tdp1-/- hTDP1 cells, no CPT, ATP luminescence, 48 h; activity change, negative = growth inhibition: at 46.2 µM (top of the series) unless noted; also: nearly all actives have a fitted effect of over 55% in size
How it was run: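 Chicken DT40 Tdp1-/- cells stably complemented with human TDP1 were seeded at 400 cells/well with DMSO in place of 20 nM camptothecin. After compound pinning, cells grew at least 48 hr at 37 °C; viability read by CellTiter-Glo luminescence.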
% is scaled to controls: 0 for no effect and ±100 for the full control effect; potency is read from the fitted curve at half-maximal effect; tags tell the direction and shape of the fitted curve.

Structure (SMILES)	activity change, negative = growth inhibition	Potency
COc1ccc(C(=O)NCCCN2CCCC2=O)cc1S(=O)(=O)N1CCOCC1	inactive: 8.21%	–
Cc1cccc(N(C(=O)c2ccc(CN3CCOCC3)o2)C(C(=O)NC(C)(C)C)c2ccc(F)cc2)c1 (stereo not drawn)	–	inconclusive: 14.6 µM [inhibitor, partial curve]
CCOC(=O)c1c(Cc2cccc(Cl)c2)c[nH]c1C	inactive: -12.6%	–
O=C(N/N=C/C=C\c1ccccc1[N+](=O)[O-])c1cc(-c2ccc3ccccc3c2)n[nH]1	–	active: 18.4 µM
O=C(O)CCCC(=O)N1CCN(c2nc(-c3ccccc3Cl)c3cc(Br)ccc3n2)CC1	–	inconclusive: 29.1 µM [inhibitor, single point]
O=C(NC1CCN(Cc2ccccc2)CC1)c1ccc(S(=O)(=O)NCc2ccco2)cc1	inconclusive: -31.7% [inhibitor]	–
CC1=NN(c2nc(-c3ccccc3)cs2)C(=O)C1N=Nc1ccccc1 (stereo not drawn)	–	active: 14.6 µM
Cn1c(=O)c2cc(S(=O)(=O)NC(C(=O)N3CCCCCC3)c3ccccc3)ccc2n(C)c1=O (stereo not drawn)	inconclusive: -32.5% [inhibitor]	–
Cc1ccc(N2CCN(CC(O)COc3cccc4ccccc34)CC2)cc1 (stereo not drawn)	–	inconclusive: 29.1 µM [inhibitor, single point]
CCc1nc2cc(C(=O)N(C)CC3COCCO3)cc(NC(=O)c3ccccc3OC)c2n1C (stereo not drawn)	inactive: -8.79%	–
O=C(COc1ccc(Cl)cc1Cl)N/N=C/c1ccccn1	–	inconclusive: 29.1 µM [inhibitor, single point]
O=c1c(Cc2ccc(Cl)cc2)c(O)ccn1Cc1cccc(Cl)c1	–	inconclusive: 7.31 µM [inhibitor, partial curve, poor fit]
CC(=O)Nc1ccc(NC(=O)c2cccc3ccccc23)cc1	inactive: -9.08%	–
COc1ccccc1NC(=O)C1CCN(S(=O)(=O)c2ccc3c(c2)NC(=O)C(C)S3)CC1 (stereo not drawn)	–	inconclusive: 20.6 µM [inhibitor, partial curve]
Cc1cc(Cl)ccc1NC(=O)c1cc2ccccn2n1	–	inconclusive: 29.1 µM [inhibitor, single point]
NS(=O)(=O)c1cccc(NC(=O)CSc2nc3ccc(Cl)cc3[nH]2)c1	–	inconclusive: 16.4 µM [inhibitor, single point]
Cc1ccc(S(=O)(=O)N2CCN(C(=O)CCC(=O)NCCc3ccc(F)cc3)CC2)cc1	inactive: -0.153%	–
CCCN1CCN(CCCNC(=O)Cn2c(-c3cccs3)cc3cc(Cl)ccc32)CC1	–	inconclusive: 20.6 µM [inhibitor, single point]
Cc1ccc2occ(CC(=O)N3CCN(c4cccc(Cl)c4)CC3)c2c1	–	inconclusive: 29.1 µM [inhibitor, single point]
Nc1[nH]c(C(=O)c2ccccc2)c(-c2ccc(C(F)(F)F)cc2)c1C(=O)NCc1ccc(Cl)cc1Cl	–	inconclusive: 7.31 µM [inhibitor, partial curve]
COc1ccc(N/C=C2\CCc3ccccc3C2=O)cc1	–	inconclusive: 23.1 µM [inhibitor, single point]
Cc1ccc(CNC(=O)CSC2=Nc3ccccc3C3=NC(C)C(=O)N23)cc1 (stereo not drawn)	–	inconclusive: 32.6 µM [inhibitor, single point]

Structure (SMILES)	activity change, negative = growth inhibition	Potency
CCOc1cc(OCC)cc(C(=O)N2CCC[C@H]2C(=O)N2CCC[C@H]2C(=O)NCc2ccc(F)cc2F)c1	inactive: -28.2%	–
NS(=O)(=O)c1ccc(CCNc2nc(C(F)(F)F)nc3ccccc23)cc1	–	inconclusive: 20.6 µM [inhibitor, single point]
CC1CCCN(CCCOc2ccc(Cl)cc2Br)C1 (stereo not drawn)	–	inconclusive: 29.1 µM [inhibitor, single point]
O=C(CCS(=O)(=O)c1ccc(Br)cc1)N1CCN(c2ccc(Cl)cc2)CC1	–	active: 14.6 µM
CCOCCCNC(=O)C1(O)c2ccccc2NC(=O)N1c1ccc(Cl)cc1 (stereo not drawn)	inactive: 6.54%	–
COc1ccc(-c2csc(C(C)(O)c3ccccc3)n2)cc1OC (stereo not drawn)	–	inconclusive: 25.9 µM [inhibitor, single point]
CCOc1ccc(Nc2ccc3nonc3c2[N+](=O)[O-])cc1	–	inconclusive: 23.1 µM [inhibitor, single point]
COc1ccccc1N1CCN(S(=O)(=O)c2ccc(-c3cnc(C4CC4)o3)cc2)CC1	–	active: 20.6 µM
Cc1cc(C)c(NC(=O)Cn2c(=O)n(Cc3ccccc3)c(=O)c3c(C)c(C(=O)N(C)C)sc32)c(C)c1	–	inconclusive: 29.1 µM [inhibitor, single point]
C[C@@H](CN=[N+]=[N-])CN1CC[C@H](NC(=O)OCc2ccccc2)CCC1=O	–	inactive and inconclusive: 14.1 µM [inhibitor, partial curve]
CCCCOc1ccc(C(=O)N(CC)CC(=O)NCc2cccs2)cc1	–	inconclusive: 20.6 µM [inhibitor, single point]
COc1cc(=O)n2c(c1C(=O)N(C)Cc1ccsc1)CCN(Cc1cnn(C)c1C)CC2	inactive: -5.22%	–
COC(=O)c1cc(NC(=O)c2c(Cl)nc3sccn23)cc(C(=O)OC)c1	inactive: -3.08%	–
O=C(CC1C(=O)N(c2ccccc2)C(=O)N1C1CCCCC1)Nc1ccccc1 (stereo not drawn)	inactive: 1.88%	–
Cc1ccc(S(=O)(=O)N2CCN(c3nc(-c4ccc(CN5CCOCC5)s4)nc4ccccc34)CC2)cc1	–	inconclusive: 20 µM [inhibitor, single point]
COc1ccc(CN2CCN(Cc3cc4ccccc4o3)CC2CCO)c(F)c1 (stereo not drawn)	inactive: -26.8%	–
CC(Oc1ccccc1Br)C(=O)N1CCc2ccccc21 (stereo not drawn)	–	inconclusive: 10.3 µM [inhibitor, partial curve, poor fit]
Cc1nc2ccccc2nc1N/N=C/c1ccc(O)cc1	inactive: -0.285%	–
O=C(NCC(c1ccco1)N1CCc2ccccc2C1)c1cccc([N+](=O)[O-])c1 (stereo not drawn)	–	inconclusive: 29.1 µM [inhibitor, single point]
CCCCn1nnnc1C(c1ccccc1)N1CCN(c2ccc(C(F)(F)F)cc2[N+](=O)[O-])CC1 (stereo not drawn)	–	active: 18.4 µM
COc1cc2c(cc1OC)C(COc1ccccc1OC)N(C(=O)c1ccccc1OC)CC2 (stereo not drawn)	–	active: 18.4 µM
